From EPA's CvTdb concentration-time database
This continues a long series; more values of the same kind are listed elsewhere.

Legend:
Rat [1] = assay: concentration in plasma after dosing; details: 0.75 h; dosed: 2-Methyltetrahydrofuran; 100 mg/kg; oral; Female; Harlan Sprague Dawley
Rat [2] = assay: concentration in brain after dosing; details: 0.25 h; dosed: 2-Methyltetrahydrofuran; 30 mg/kg; oral; Male; F344
Rat [3] = assay: concentration in brain after dosing; details: 1 h; dosed: 2-Methyltetrahydrofuran; 10 mg/kg; iv; Female; F344
Rat [4] = assay: concentration in plasma after dosing; details: 6 h; dosed: 2-Methyltetrahydrofuran; 400 mg/kg; oral; Male; F344
Rat [5] = assay: concentration in brain after dosing; details: 10 min; dosed: 2-Methyltetrahydrofuran; 10 mg/kg; oral; Female; F344
Rat [6] = assay: concentration in plasma after dosing; details: 20 min; dosed: 2-Methyltetrahydrofuran; 30 mg/kg; oral; Male; F344
Rat [7] = assay: concentration in plasma after dosing; details: 0.5 h; dosed: 2-Methyltetrahydrofuran; 10 mg/kg; iv; Female; F344
Rat [8] = assay: concentration in plasma after dosing; details: 2 min; dosed: 2-Methyltetrahydrofuran; 10 mg/kg; oral; Female; F344
Rat [9] = assay: concentration in plasma after dosing; details: 10 min; dosed: 2-Methyltetrahydrofuran; 30 mg/kg; oral; Female; F344
Rat [10] = assay: concentration in plasma after dosing; details: 8 h; dosed: 2-Methyltetrahydrofuran; 100 mg/kg; oral; Female; Harlan Sprague Dawley
Rat [11] = assay: concentration in plasma after dosing; details: 10 min; dosed: 2-Methyltetrahydrofuran; 30 mg/kg; oral; Male; F344
Rat [12] = assay: concentration in brain after dosing; details: 1 h; dosed: 2-Methyltetrahydrofuran; 10 mg/kg; iv; Female; F344; remark: listed apart in the source
Rat [13] = assay: concentration in plasma after dosing; details: 1.5 h; dosed: 2-Methyltetrahydrofuran; 400 mg/kg; oral; Female; F344
Rat [14] = assay: concentration in plasma after dosing; details: 0.5 h; dosed: 2-Methyltetrahydrofuran; 30 mg/kg; oral; Male; F344
Rat [15] = assay: concentration in plasma after dosing; details: 20 min; dosed: 2-Methyltetrahydrofuran; 10 mg/kg; oral; Female; F344
Rat [16] = assay: concentration in brain after dosing; details: 20 min; dosed: 2-Methyltetrahydrofuran; 10 mg/kg; iv; Male; F344
Rat [17] = assay: concentration in brain after dosing; details: 2 h; dosed: 2-Methyltetrahydrofuran; 10 mg/kg; iv; Male; F344
Rat [18] = assay: concentration in brain after dosing; details: 3 h; dosed: 2-Methyltetrahydrofuran; 30 mg/kg; oral; Female; F344
Rat [19] = assay: concentration in plasma after dosing; details: 10 min; dosed: Bromochloroacetic acid; 10 mg/kg; iv; Male; F344
Rat [20] = assay: concentration in plasma after dosing; details: 40 min; dosed: Bromochloroacetic acid; 10 mg/kg; iv; Male; F344
Rat [21] = assay: concentration in plasma after dosing; details: dosed: Bromochloroacetic acid, 100 mg/kg, oral, Male, F344
Rat [22] = assay: concentration in plasma after dosing; details: 10 min; dosed: Bromochloroacetic acid; 10 mg/kg; iv; Male; F344; remark: listed apart in the source
Rat [23] = assay: concentration in plasma after dosing; details: 12 h; dosed: Fluorotelomer alcohol 8+2; 24 mg/kg; oral; Male; Harlan Sprague Dawley
Rat [24] = assay: concentration in plasma after dosing; details: dosed: Formamide, 30 mg/kg, iv, Female, F344
Rat [25] = assay: concentration in plasma after dosing; details: dosed: Formamide, 600 mg/kg, oral, Male, Harlan Sprague Dawley
Rat [26] = assay: concentration in plasma after dosing; details: dosed: Formamide, 30 mg/kg, iv, Female, F344; remark: listed apart in the source
Rat [27] = assay: concentration in plasma after dosing; details: dosed: Formamide, 36 mg/kg, oral, Female, Harlan Sprague Dawley
Rat [28] = assay: concentration in plasma after dosing; details: dosed: Formamide, 36 mg/kg, oral, Female, Harlan Sprague Dawley; remark: listed apart in the source
Rat [29] = assay: concentration in plasma after dosing; details: dosed: Formamide, 36 mg/kg, oral, Female, Harlan Sprague Dawley; remark: listed apart in the source
Rat [30] = assay: concentration in plasma after dosing; details: dosed: Formamide, 36 mg/kg, oral, Female, Harlan Sprague Dawley; remark: listed apart in the source
Rat [31] = assay: concentration in plasma after dosing; details: dosed: Formamide, 600 mg/kg, oral, Female, Harlan Sprague Dawley
Rat [32] = assay: concentration in plasma after dosing; details: 40 min; dosed: Pyridine; 50 mg/kg; oral; Female; F344
Rat [33] = assay: concentration in plasma after dosing; details: 1 h; dosed: Pyridine; 10 mg/kg; oral; Male; F344
Rat [34] = assay: concentration in plasma after dosing; details: 1 h; dosed: Pyridine; 200 mg/kg; oral; Female; Harlan Sprague Dawley
Rat [35] = assay: concentration in plasma after dosing; details: 1 h; dosed: Pyridine; 50 mg/kg; oral; Male; Harlan Sprague Dawley
Rat [36] = assay: concentration in plasma after dosing; details: dosed: Pyridine, 5 mg/kg, oral, Female, F344
Rat [37] = assay: concentration in plasma after dosing; details: dosed: Pyridine, 5 mg/kg, oral, Female, F344; remark: listed apart in the source
Rat [38] = assay: concentration in plasma after dosing; details: dosed: Pyridine, 5 mg/kg, iv, Female, F344
Rat [39] = assay: concentration in plasma after dosing; details: 2 h; dosed: Pyridine; 50 mg/kg; oral; Female; F344

CC1CCCO1 (stereo unspecified) [2-Methyltetrahydrofuran]
Details | concentration in brain [µg/g] | concentration in plasma [ng/mL]
Rat [1] | – | 40800
Rat [2] | 11.6 | –
Rat [3] | 0.582 | –
Rat [4] | – | 94300
Rat [5] | 1.93 | –
Rat [6] | – | 16700
Rat [7] | – | 4760
Rat [8] | – | 2690
Rat [9] | – | 13500
Rat [10] | – | 217
Rat [11] | – | 18600
Rat [12] | 0.675 | –
Rat [13] | – | 201000
Rat [14] | – | 15600
Rat [15] | – | 2990
Rat [16] | 6.12 | –
Rat [17] | 0.241 | –
Rat [18] | 0.356 | –

O=C(O)C(Cl)Br (stereo unspecified) [Bromochloroacetic acid]
Details | concentration in plasma [ng/mL]
Rat [19] | 5440
Rat [20] | 201
Rat [22] | 5710

Rat [21]
Details | concentration in plasma [ng/mL]
4.5 h | 3100
10 min | 3710

OCCC(F)(F)C(F)(F)C(F)(F)C(F)(F)C(F)(F)C(F)(F)C(F)(F)C(F)(F)F [Fluorotelomer alcohol 8+2]
Details | concentration in plasma [ng/mL]
Rat [23] | 10.7

NC=O [Formamide]
Details | concentration in plasma [ng/mL]
Rat [24], 10 min | 26900
Rat [24], 18 h | 8300
Rat [25], 10 min | 424000
Rat [25], 20 h | 488000
Rat [26], 10 min | 41500
Rat [26], 18 h | 11600
Rat [27], 10 min | 20600
Rat [27], 20 h | 17900
Rat [28], 8 h | 36800
Rat [28], 12 h | 28400
Rat [29], 0.25 h | 28600
Rat [29], 5 h | 54600
Rat [30], 10 min | 11700
Rat [30], 20 h | 16400
Rat [31], 1.5 h | 704000
Rat [31], 30 h | 172000

c1ccncc1 [Pyridine]
Details | concentration in plasma [ng/mL]
Rat [32] | 29800
Rat [33] | 2200
Rat [34] | 97000
Rat [35] | 26800
Rat [39] | 16500

concentration in plasma [ng/mL]
Details | 0.25 h | 2 h | 6 h | 14 h
Rat [36] | – | 3390 | – | 111
Rat [37] | – | 3200 | – | 159
Rat [38] | 3800 | – | 1670 | –
